# Laboratory results reported in PMC4336329 (PLoS ONE, 2015).
# Hit rate of the full screen: of about 310,000 compounds, about 14,000 (4.5%) showed an effect of 50% or more. Effects have a minus sign here. The list shows a part of the results.
# Target: human ether-à-go-go-related gene (hERG) potassium channel (human, UniProt Q12809)
# Assay: primary screen, population patch clamp on CHO cells stably expressing hERG
# 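Note: peak tail current of the secondary pulse compared with the same well before compound.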
# human ether-à-go-go-related gene (hERG) potassium channel, sequence (Q12809 whole entry, looked up): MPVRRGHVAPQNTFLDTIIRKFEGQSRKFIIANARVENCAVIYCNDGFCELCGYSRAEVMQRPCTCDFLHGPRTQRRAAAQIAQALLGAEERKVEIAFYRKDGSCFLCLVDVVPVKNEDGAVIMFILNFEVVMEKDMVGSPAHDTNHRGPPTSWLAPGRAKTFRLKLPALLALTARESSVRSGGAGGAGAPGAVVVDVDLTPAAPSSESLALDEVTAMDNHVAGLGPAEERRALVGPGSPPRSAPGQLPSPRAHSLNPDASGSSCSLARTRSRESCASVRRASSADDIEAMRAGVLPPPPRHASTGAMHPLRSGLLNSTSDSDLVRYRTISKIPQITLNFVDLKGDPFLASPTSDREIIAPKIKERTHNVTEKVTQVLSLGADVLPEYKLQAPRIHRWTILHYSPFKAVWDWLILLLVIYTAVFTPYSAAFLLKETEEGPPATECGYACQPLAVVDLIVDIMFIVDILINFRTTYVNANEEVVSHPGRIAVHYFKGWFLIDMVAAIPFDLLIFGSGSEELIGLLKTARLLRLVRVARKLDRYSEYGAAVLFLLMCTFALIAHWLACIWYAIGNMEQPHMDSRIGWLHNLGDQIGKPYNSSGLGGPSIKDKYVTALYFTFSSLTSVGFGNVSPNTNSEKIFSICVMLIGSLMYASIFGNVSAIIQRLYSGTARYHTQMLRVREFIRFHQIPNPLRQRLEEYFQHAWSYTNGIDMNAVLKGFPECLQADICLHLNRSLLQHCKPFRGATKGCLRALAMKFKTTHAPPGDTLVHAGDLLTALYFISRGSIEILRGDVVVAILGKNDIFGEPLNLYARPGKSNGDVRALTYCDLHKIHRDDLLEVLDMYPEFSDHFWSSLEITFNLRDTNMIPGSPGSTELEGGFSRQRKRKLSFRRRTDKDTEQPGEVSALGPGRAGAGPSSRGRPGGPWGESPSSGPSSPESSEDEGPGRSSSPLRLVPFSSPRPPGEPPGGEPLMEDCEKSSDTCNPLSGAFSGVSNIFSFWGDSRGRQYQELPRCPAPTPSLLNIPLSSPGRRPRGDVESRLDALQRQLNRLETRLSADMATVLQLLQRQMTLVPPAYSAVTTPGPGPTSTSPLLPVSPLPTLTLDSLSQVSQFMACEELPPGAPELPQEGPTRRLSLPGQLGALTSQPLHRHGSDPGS
row,Compound,"hERG current change (%, negative = inhibition) at 10uM"
1,CC1(C)CC(=O)C(=Cc2cn(CCC#N)nc2-c2ccc(Cl)cc2)C(=O)C1,-12.1%
2,CCOC(=O)c1c(NC(=O)Nc2ccc(Cl)cc2)sc(C)c1C,3.38%
3,CCOc1ccc(C(=O)OCC(=O)c2c(N)n(C)c(=O)n(C)c2=O)cc1OCC,6.21%
4,CC(NC(=O)CN(C)Cc1nc2ccccc2c(=O)[nH]1)c1ccccc1 (stereo not shown),2.59%
5,Cc1cc(C)n2nc(C(=O)OCC(=O)N(C)CC(=O)Nc3ccc(F)cc3)nc2n1,5.94%
6,Cc1cc(C)c(N=C2C(=O)Nc3ccccc32)c(C)c1,10.5%
7,CCOC(=O)C1CCN(C2=C(NS(=O)(=O)c3ccc(Br)cc3)C(=O)c3ccccc3C2=O)CC1,4.23%
8,CCOC(=O)N/N=C/c1c[nH]c2ccccc12,3.65%
9,CCn1c(SCc2cc(=O)[nH]c3ccccc23)nnc1C1CC1,8.48%
10,CN(C)C(=O)CSc1nnc(-c2cccs2)n1-c1ccccc1,32.9%
11,Cc1ccc(S(=O)(=O)CCN2CCN(c3ccccn3)CC2)cc1,2.42%
12,O=C(CN1CCC(C(=O)c2ccc3c(c2)OCCO3)CC1)Nc1ccccc1C(F)(F)F,1.17%
13,CCc1ccccc1NC(=O)c1ccc(F)c(S(=O)(=O)N2CCC(C(N)=O)CC2)c1,17%
14,CC1CCCCC1NC(=O)CSc1nnnn1-c1ccccc1 (stereo not shown),7.97%
15,Cc1cccc(C(=O)NCC(=O)NCC2COc3ccccc3O2)c1 (stereo not shown),-17.6%
16,CC12CCC(C/C1=N\OC(=O)c1ccc(F)cc1)C2(C)C (stereo not shown),-13.9%
17,CCOc1ccc(CN(C)C(=O)CCl)cc1,-1.2%
18,Cc1cccc(C)c1NC(=O)C1CCCCN1C.Cl (stereo not shown),17.5%
19,Cc1cccnc1NC(=O)C(C)N1C(=O)c2ccccc2C1=O (stereo not shown),15%
20,C=CCn1c(=NC(=O)c2cccs2)sc2cccc(OC)c21,14.7%

row,Compound,"hERG current change (%, negative = inhibition) at 10uM"
1,NS(=O)(=O)c1ccc(N2N=C(c3ccc(Br)cc3)CC2c2ccc(F)cc2)cc1 (stereo not shown),14.3%
2,CC1CCN(C(=O)c2cc(F)c(F)cc2Cl)CC1,7.62%
3,O=C(OCc1ccccc1)N1CCc2ccccc21,-8.46%
4,O=C(NCCCN1CCOCC1)c1onc(CSc2ccccc2)c1C(=O)NCCCN1CCOCC1,4.97%
5,O=C(CNC(=O)c1cccs1)OCC(=O)c1ccc([N+](=O)[O-])cc1,27%
6,Cc1ccc(C)c(OCCCC(=O)O)c1,3.97%
7,COc1cc(NC(=O)C23CC4CC(C2)CC(n2nnc(C)n2)(C4)C3)c(OC)cc1Cl,4.76%
8,O=S(=O)(c1cnc(Cl)c(Cl)c1)N1CCN(c2ncccn2)CC1,2.85%
9,COc1ccc(NC(=S)N2CCCCCC2)cc1OC,22.8%
10,COC(=O)C1=C(c2ccc(F)cc2OCc2ccccc2)C[C@@H]2CC[C@H]1N2C(=O)NC1CCN(Cc2ccccc2)CC1,2.18%
11,COc1ccccc1OCC(O)CNCc1ccc2c(c1)OCO2 (stereo not shown),-24.2%
12,COc1cccc(CCNC(=O)CC2C(=O)NCCN2CC(C)(C)C)c1 (stereo not shown),15.8%
13,COC(=O)c1ccc2c(=O)n(Cc3ccc(C(=O)NC(C)C)cc3)c(=S)[nH]c2c1,23.5%
14,O=C(CNC(=S)NC(=O)c1ccco1)c1ccccc1,-15.3%
15,CC(C)C(=O)c1ccc(O)c(O)c1,-2.09%
16,COc1cccc(NC(=O)C2CCCN(S(=O)(=O)c3cccc4cccnc34)C2)c1 (stereo not shown),-9.16%
17,O=S(=O)(c1ccc(N2CC=C(c3ccccc3)CC2)nc1)N1CCCC1,-3.38%
18,Nc1[nH]c(=O)[nH]c(=O)c1N=Nc1ccc(C(=O)O)cc1,20.4%
19,CCCCn1c(N)c(N(CC(C)C)C(=O)CSC(C)C(=O)Nc2cc(C)on2)c(=O)[nH]c1=O (stereo not shown),9.14%
20,Cc1cc(C)c(C#N)c(SCC(=O)Nc2ccccc2C(N)=O)n1,-4.85%

row,Compound,"hERG current change (%, negative = inhibition) at 10uM"
1,CC1(C)CC(N(Cc2cccs2)C(=O)c2ccco2)CCO1 (stereo not shown),-2.33%
2,COc1ccc(Cl)cc1NC(=O)N1CCN(C2CCCCC2)CC1,-22.2%
3,CC(=O)c1ccccc1C(=O)N1CCCC(CCC(=O)N2CCN(c3ccccn3)CC2)C1 (stereo not shown),17.9%
4,Cc1ccc(O)c(NS(=O)(=O)c2cccc3nsnc23)c1,-18.1%
5,CCOC(=O)c1ccccc1C(=O)N1CCOCCOCCOCC1,6.35%
6,Cc1cc(C(=O)NCCC2=CCCCC2)c(C)o1,7.75%
7,COc1ccc([C@H]2CC(=O)C=C(c3ccccc3)C2)cc1OC,-3.04%
8,COc1ccc(C(Nc2cc(C)ccn2)c2ccc3ccc(C)nc3c2O)cc1 (stereo not shown),-15.3%
9,CC(C)Cn1nc(-c2ccccc2)c2ccccc2c1=O,20.1%
10,CCC(=O)c1ccc(CCCCCC(=O)O)s1,5.76%
11,COc1ccc(OC)c(CNC(=O)CCc2cn(C)c3ccccc23)c1,5.44%
12,CC(C)[C@H](NC(=O)N1CCn2c1nc1ccccc12)C(=O)NCc1ccc2c(c1)OCO2,-0.903%
13,CCCCC(=O)Nc1ccc2c(c1)nc(CCNC(=O)c1ccco1)n2C,-11.1%
14,O=C1C=C(c2ccc3c(c2)OCCO3)C[C@@H](c2ccc(F)cc2)C1,8.1%
15,CCCNC(=O)CC1C(=O)N(Cc2ccccc2)C(C)c2nc3ccccc3n21 (stereo not shown),4.85%
16,CC(C)(C)NC(=O)NC(=O)CSc1nnc(-c2ccccc2F)n1N,13.3%
17,Cn1cccc1C(C(=O)NC1CCCCC1)N(C(=O)Cc1cccs1)c1ccc2c(c1)OCO2 (stereo not shown),-5.67%
18,CC(NC(=O)C12CC3CC(CC(O)(C3)C1)C2)c1ccccc1 (stereo not shown),6.83%
